The list shows a part of the results. The full chains were built here from the parent and the listed change. Values near 0.05 are background.
B1: TEV protease; numbered along this chain (parent)
chain: MGESLFKGPRDYNPISSSICHLTNESDGHTTSLYGIGFGPFIITNKHLFRRNNGTLVVQSLHGVFKVKDTTTLQQHLVDGRDMIIIRMPKDFPPFPQKLKFREPQREERICLVTTNFQTKSMSSMVSDTSCTFPSGDGIFWKHWIQTKDGQCGSPLVSTRDGFIVGIHSASNFTNTNNYFTSVPKNFMELLTNQEAQQWVSGWRLNADSVLWGGHKVFMVKPEEPFQPVKEATQL

Variants of: B1
Test: raw area under fraction-flipped curve 0-4 h after induction (AUC4h, not background-subtracted), DNA-recorder readout of cleavage of the substrate (dimensionless); higher = more cleavage of the substrate by the protease variant
Details: temperature: 34 °C; time window: 0-4 h after rhamnose induction
Experimental: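 In vivo DNA recorder in E. coli TOP10(DE3) ΔrhaA at 34 °C. Each TEVp single-site mutant (parent TEVp 0) is paired with a single-site variant of the 7-mer TEVs (canonical ENLYFQ|S). The substrate sits between flexible linkers in a Bxb1-sfGFP-TEVs-SsrA fusion, so cleavage stabilises Bxb1 and speeds flipping of a recombination array, read by NGS. The value is the raw area under the fraction-flipped curve over 0-4 h after rhamnose induction (AUC4h), with ≥20 reads per time point. It is not background-subtracted; inactive controls average about 0.047.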
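Further: Bxb1 expression induced with 0.2% (w/v) L-rhamnose at OD600 near 0.5, cultures sampled hourly, flipped fraction per protease–substrate barcode pair counted by paired-end Illumina sequencing.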

Row | Variant | area with substrate ENLYFAS | area with substrate ENLYFCS | area with substrate ENLYFGS | area with substrate ENLYFIS | area with substrate ENLYFMS | area with substrate ENLYFRS | area with substrate ENLYFSS | area with substrate ENLYFWS | area with substrate ENLYFES | area with substrate ENLYFFS
1 | S201E | 0.0523 | 0.056 | 0.0628 | 0.0495 | 0.0683 | 0.058 | 0.0574 | 0.0592 |  | 
2 | S201N | 0.0736 |  |  | 0.0628 | 0.034 | 0.0606 | 0.0532 | 0.0627 | 0.0681 | 0.0739
3 | S201C | 0.0612 | 0.0658 | 0.0618 | 0.0635 | 0.0455 |  | 0.0598 | 0.0265 |  | 0.0577
4 | V58L |  | 0.0605 | 0.0732 | 0.0443 | 0.0608 | 0.0417 |  | 0.0303 | 0.0707 | 0.072
5 | P9N |  | 0.0363 | 0.0629 | 0.0554 | 0.0529 |  |  | 0.0544 |  | 
6 | N206R | 0.0494 |  | 0.065 |  | 0.0613 | 0.072 |  |  | 0.0663 | 0.0684
7 | N206C | 0.0497 | 0.0571 | 0.0609 | 0.0569 | 0.0617 |  | 0.0662 | 0.0091 | 0.0751 | 0.071
8 | G202W | 0.0568 |  |  | 0.0455 | 0.0727 |  |  |  | 0.0569 | 
9 | G202I | 0.0364 | 0.0596 |  | 0.0549 | 0.0353 |  | 0.0484 |  | 0.0417 | 
10 | G37C |  | 0.067 |  | 0.0376 |  |  |  |  |  | 0.0402
11 | G35S |  | 0.0489 |  |  | 0.0489 | 0.0504 |  |  |  | 
12 | F6T |  | 0.059 | 0.0551 | 0.0667 | 0.0612 |  |  | 0.0802 | 0.0757 | 
13 | I84H |  | 0.031 | 0.0555 | 0.0506 | 0.0617 | 0.0539 | 0.0549 |  |  | 0.0201
14 | L235T | 0.0635 |  |  | 0.0454 |  | 0.0521 | 0.0591 |  |  | 0.0661
15 | L235P | 0.0614 | 0.0438 |  | 0.0495 | 0.0369 | 0.067 |  |  |  | 0.0598
16 | W199S | 0.0488 | 0.0571 |  | 0.0598 |  | 0.0676 | 0.0595 |  | 0.0624 | 
17 | W199Y | 0.0628 | 0.0444 |  | 0.0511 |  |  |  | 0.056 |  | 0.0573
18 | N45G |  | 0.0524 | 0.0696 | 0.0564 | 0.063 |  | 0.0553 |  | 0.0556 | 0.0782

Row | Variant | area with substrate ENLYFAS | area with substrate ENLYFCS | area with substrate ENLYFGS | area with substrate ENLYFIS | area with substrate ENLYFMS | area with substrate ENLYFRS | area with substrate ENLYFSS | area with substrate ENLYFWS | area with substrate ENLYFES | area with substrate ENLYFFS
19 | G214E | 0.0633 |  | 0.0305 | 0.0735 | 0.0672 |  |  | 0.0476 | 0.0614 | 0.0787
20 | F95N |  | 0.0504 |  |  | 0.0499 | 0.0462 |  |  |  | 0.0593
21 | L205Y | 0.0405 | 0.0553 |  | 0.0554 | 0.0599 | 0.0643 |  | 0.0481 | 0.0744 | 
22 | L205S | 0.054 |  |  | 0.0309 |  |  |  |  |  | 
23 | P228W | 0.039 |  |  | 0.0572 | 0.0682 | 0.0516 |  |  |  | 
24 | V57E |  | 0.0493 |  | 0.0579 |  | 0.0666 |  | 0.0561 |  | 0.0668
25 | T233Y | 0.046 | 0.0557 |  |  | 0.0622 | 0.0613 |  |  | 0.0761 | 0.0639
26 | Q59R |  | 0.0566 |  | 0.0647 | 0.0629 |  |  | 0.0628 | 0.0683 | 0.0604
27 | V220S | 0.0414 | 0.0651 |  | 0.0554 | 0.0612 |  | 0.0578 |  | 0.0559 | 
28 | K66H |  | 0.055 | 0.0616 | 0.0495 | 0.0721 |  |  |  |  | 0.0548
29 | K66W |  | 0.0615 | 0.0687 | 0.0543 | 0.0613 |  |  | 0.0574 | 0.0726 | 0.0764
30 | K66E |  | 0.0744 | 0.0576 | 0.0374 | 0.0532 | 0.0376 |  |  |  | 0.0731
31 | K66A |  | 0.0666 | 0.0562 |  |  |  |  |  |  | 
32 | Q197R | 0.0688 | 0.0559 | 0.0701 | 0.067 |  |  |  |  | 0.0727 | 
33 | R87Q |  | 0.0664 |  |  | 0.0849 | 0.0451 |  | 0.0548 |  | 
34 | I86C |  | 0.0585 |  | 0.0312 |  | 0.0651 |  | 0.0627 |  | 
35 | Q194A | 0.0506 | 0.0516 |  | 0.0626 | 0.0749 | 0.055 |  |  |  | 0.0528

Same assay, conditions: temperature: 34 °C; time window: 0-4 h after rhamnose induction

Row | Variant | area with substrate ENLYFHS | area with substrate ENLYFKS | area with substrate ENLYFLS | area with substrate ENLYFNS | area with substrate ENLYFPS | area with substrate ENLYFTS | area with substrate ENLYFVS | area with substrate ENLYFYS | area with substrate ENLYFDS
36 | S201N | 0.0574 | 0.071 | 0.055 | 0.0477 | 0.0583 | 0.0575 | 0.0456 | 0.0721 | 
37 | S201C |  | 0.065 |  | 0.0722 |  |  | 0.0629 | 0.0544 | 0.0363
38 | V58L |  | 0.0558 | 0.0616 |  | 0.0671 | 0.0629 |  |  | 
39 | P9N | 0.0517 |  |  |  |  |  |  |  | 
40 | N206R | 0.0804 | 0.0696 |  | 0.0652 | 0.0681 | 0.0608 | 0.0604 |  | 0.0451
41 | N206C | 0.0593 | 0.0612 |  |  | 0.0593 | 0.0648 | 0.0417 | 0.0561 | 
42 | G202W | 0.0464 | 0.0561 | 0.0585 | 0.0703 | 0.0594 | 0.0556 |  | 0.0762 | 0.05
43 | G202I |  | 0.0535 |  | 0.0661 | 0.0538 | 0.0717 |  |  | 
44 | G37C |  |  |  |  | 0.0548 |  |  |  | 
45 | G35S | 0.0484 |  |  |  |  |  |  |  | 
46 | F6T |  |  |  |  | 0.0664 |  |  |  | 
47 | I84H | 0.0548 | 0.0572 |  |  |  |  |  |  | 
48 | L235T |  | 0.0702 | 0.0548 | 0.0704 | 0.0464 |  | 0.07 | 0.0551 | 0.0495
49 | L235P | 0.067 |  |  | 0.0306 | 0.0614 |  |  | 0.0623 | 
50 | W199S | 0.0567 |  | 0.0702 |  | 0.0546 |  | 0.0658 | 0.0523 | 
51 | N45G | 0.0565 | 0.0603 | 0.0441 | 0.0495 | 0.0411 | 0.0603 | 0.0494 |  | 0.0687
52 | G214E | 0.0457 |  | 0.0549 |  | 0.0409 |  | 0.0192 |  | 

Row | Variant | area with substrate ENLYFHS | area with substrate ENLYFKS | area with substrate ENLYFLS | area with substrate ENLYFNS | area with substrate ENLYFPS | area with substrate ENLYFTS | area with substrate ENLYFVS | area with substrate ENLYFYS | area with substrate ENLYFDS
53 | F95N |  |  | 0.0502 |  | 0.051 |  | 0.0473 |  | 0.0476
54 | L205Y |  | 0.0588 | 0.0785 | 0.0609 | 0.0585 | 0.0701 |  | 0.0604 | 
55 | L205S |  |  | 0.0622 |  |  |  |  | 0.0078 | 
56 | P228W |  |  | 0.0622 |  |  |  |  |  | 
57 | V57E |  |  |  | 0.0743 | 0.0545 | 0.0596 | 0.081 |  | 0.0569
58 | T233Y |  | 0.0451 |  |  | 0.0564 |  |  | 0.0517 | 0.0498
59 | Q59R | 0.0615 | 0.0893 |  | 0.0411 |  | 0.0626 |  | 0.0597 | 
60 | V220S |  |  |  | 0.0698 | 0.0724 |  |  |  | 
61 | K66H |  |  |  | 0.0875 | 0.0395 | 0.0434 |  | 0.0707 | 
62 | K66W | 0.067 | 0.0598 |  | 0.0565 | 0.0548 | 0.0508 |  |  | 
63 | K66E | 0.0488 | 0.0533 | 0.0645 | 0.086 |  | 0.0354 | 0.0653 | 0.079 | 0.042
64 | K66A |  |  |  |  | 0.0586 | 0.0552 |  |  | 
65 | Q197R |  | 0.0571 |  |  |  | 0.0561 | 0.0439 |  | 
66 | R87Q |  |  | 0.0494 |  |  | 0.0408 |  |  | 0.0462
67 | I86C |  |  |  |  |  | 0.06 |  |  | 
68 | Q194A | 0.0527 | 0.0491 |  | 0.0665 | 0.0678 | 0.0596 |  |  | 
